Drawing on the RNAGym collection of RNA variant scans (doi:10.7554/elife.90254), this text covers self-cleavage for 167 variants.

Read counts are not given, so values of variants with three or more changes are uncertain.

B1: LINE1-mini (parent)
chain: GGCAGAGCUCAACACAGCGUGGCAAAGUGGCUGUGGCUAGACUGCC

The data set covers variants of B1. As to the kind of experiment: self-cleavage, relative activity (ratio to wild type); higher = more cleavage; in vitro, sequencing; the parent is a self-cleaving ribozyme.
For the variant A6G G29U A41C G44A, the self-cleavage amounted to 0.03. For A6C C10U U20G G36C A41C, the self-cleavage worked out at 0.01. As for G5U U32C C37U, the self-cleavage was found to be 0.18.

On to A6G C8G C15G C31A C37G, for which the self-cleavage amounted to 0.17. As to A6C A16U U20A G30U U34C, the self-cleavage amounted to 0.24. Take A6C U28A G40A: the self-cleavage came out at 0.13. Consider A6G G21U U28A, for which the self-cleavage amounted to 0.01. A6C A14U G17C G21U G29C: the self-cleavage amounted to 0.03. As for A6C G35U U38A, the self-cleavage was found to be 0.18.

Turning to A6C U20G G35C, the self-cleavage was found to be 0.13.

On to A6C G21U A24G, for which the self-cleavage was found to be 0.78. As for A6C C10A C15A A16U, the self-cleavage was 0.02. Next, A6C A41C C45U: 0.03; A6G G33A G44U: 0.03; A6C C10G C15G C18A U28A C45G: 0.01.

With A6G C8A C37G C46A, the self-cleavage turned out to be 0.01. Consider A6G A11C A24U G29U, for which the self-cleavage was 0.01. Consider A6G G19U G27C C31G C37A, for which the self-cleavage was determined as 0.02. For the variant A6G G7U C10U U43A, the self-cleavage was 0.01. Consider A6G C23U C37A, for which the self-cleavage was determined as 0.02. In the case of A6G U9A A12C U20A A25G, the self-cleavage was 0.01. Consider A6G A16C C45G, for which the self-cleavage was 0.07. Take A6G A12G A39G C45A: the self-cleavage is 0.01. Turning to A6C G19A A25C A26C U43A, the self-cleavage was found to be 0.02. Regarding A6C C10A G19A, the self-cleavage was found to be 0.05.

On to A6C U20G C23A U34C G36C, for which the self-cleavage turned out to be 0.01.

Consider A6C G17A G29A, for which the self-cleavage came to 0.35. Regarding A6C G7C C37A G40A, the self-cleavage is 0.03. A6C C18A G19A G30A: the self-cleavage amounted to 2.97. As for G5U U20C C46G, the self-cleavage was found to be 0.04. As to A6C A16U U20A C23A, the self-cleavage came out at 0.1.

For the variant A6C C15U C18A A24U, the self-cleavage was found to be 0.02. Next, A6C A11U C13A G22A: 0.03. The result for G5U U20A A41G reads 0.05. On to A6G G7C A16U A26G, for which the self-cleavage came out at 0.01. Consider A6G A14U A24G, for which the self-cleavage came out at 0.02. The result for A6G C10A G19U A24U reads 0.01; that for A6C G33C C42A, 0.02; that for A6C G30U C46A, 0.54.

Consider A6G G7U A11G G22U G33U C42A, for which the self-cleavage came to 0.01. As for A6C C23U A25C U28A G33A, the self-cleavage came to 0.25.

For the variant A6C A11U A24C, the self-cleavage worked out at 0.02. Regarding A6G C10U A24U G33U G35C G40C, the self-cleavage stood at 0. As to A6C C10U G27A A39U, the self-cleavage was found to be 0.28. On to A6G C8A G33U C46A, for which the self-cleavage was determined as 0.13. Take A6C U9C G22A A25U G27U G35C: the self-cleavage stood at 0.06. As for A6C A16C G36C, the self-cleavage is 0. As for A6C C8A C18U G30U G35U, the self-cleavage was determined as 0.04. As to A6G C18U G30A C45G, the self-cleavage is 0.33. Turning to A6C A14C G33A, the self-cleavage is 0.01. For the variant A6G C13A C15U C31U U34A, the self-cleavage was 0.11. For the variant A6G G35A C45G, the self-cleavage was determined as 0.69. The result for A6C A14C G19U G21C A39G U43G reads 0.11; that for A6G C23A A24G, 0.04; that for A6G A16U U38G, 0.01.

Turning to A6C C18A G35U, the self-cleavage is 0.03.

For the variant A6C U20C C37A, the self-cleavage came to 0.05. Consider A6G A12U G17U U28C G35U G40C, for which the self-cleavage stood at 0.02. The result for A6G A12U C18U C45U reads 0.03; that for A6G A26G A41C C46A, 0.12; that for A6G A26G A39C, 0.03. With A6G C15G G36A U43A, the self-cleavage amounted to 0. In the case of A6G A11U A16C C23U G35A U43G, the self-cleavage stood at 0.02.

With A6C C8U G35U A41U C42A, the self-cleavage worked out at 0. In the case of A6C C23A U28C G36U, the self-cleavage turned out to be 0.06. The result for A6C A12G G17C reads 0.02; that for A6G G7U C15A G44U, 0.07. The result for A6G C15U A16G reads 0; that for A6G G19A G30U U38C A39G C45G, 0.3.

Turning to A6G C8A C18U, the self-cleavage was found to be 0.29.

Turning to A6G C13G G19A G36A C42U, the self-cleavage turned out to be 0.14. For the variant A6G C8U C10G G35C G44A, the self-cleavage was found to be 0.01. As to A6C G35U C37G A39U, the self-cleavage stood at 0.03. Consider A6C G17C G21C G22U C23A C46U, for which the self-cleavage was 0.32. A6G A12G A16C C42U: the self-cleavage is 0.01. A6C G19A U34C A39C: the self-cleavage was determined as 0.07. Regarding A6C A11C C13A C15A C37A C45G C46G, the self-cleavage was 0.01. For the variant A6C C31U U38C, the self-cleavage was determined as 0.02.

As for A6G C10U G19U, the self-cleavage is 0.01.

For the variant A6G G17C A41C C42G, the self-cleavage is 0.03. Regarding A6C C18G C23A A25G, the self-cleavage was determined as 0.04.

As for A6C A11U C23A G40C C45G, the self-cleavage is 0.01. On to A6G A11G C23U, for which the self-cleavage is 0.01. Take A6C A25C G27U: the self-cleavage turned out to be 0.7. Consider A6G C10A C45A, for which the self-cleavage turned out to be 0.01.

As for A6C A12U U34A C45G, the self-cleavage was 0.

In the case of A6G A24G C37A, the self-cleavage was 0.03. In the case of A6C U34C A41G C42U, the self-cleavage was 0.11. As to A6G C10G A12G, the self-cleavage was 0.01. For A6G A24C C46A, the self-cleavage amounted to 0.19. A6G G7U C10U: the self-cleavage came out at 0.05. On to A6G G7U C10A, for which the self-cleavage was found to be 0.01. Take A6G G7U C10G: the self-cleavage is 0.01. Consider A6G C13U G30C C37U, for which the self-cleavage amounted to 0.1. On to A6G C23A C46U, for which the self-cleavage amounted to 0.1. The result for A6G G19U C23U G36U U43C reads 0; that for A6C G7C C23U G44A, 0.13; that for A6C A14U G35U C46U, 0.02. For the variant A6G C8G A24C G36A, the self-cleavage was 0.01. The result for A6G A39C G44U reads 0.18. For G5U U20G C37A, the self-cleavage came out at 0.01.

On to A6C A12G G44C, for which the self-cleavage is 0.02. For the variant A6G G29A U38C G44U, the self-cleavage was 0.02.

G5U U9G A14U C15U G40A: the self-cleavage was determined as 0. Turning to A6G G27A G29A, the self-cleavage worked out at 0.15. As for A6C A11U A26C G29U G36U, the self-cleavage came to 0. In the case of A6G G7A G27U G29A, the self-cleavage was determined as 0.03. For the variant A6C C15G G21U A24C G40A, the self-cleavage stood at 0. The result for A6G A12G U20G G36U reads 0.01; that for A6C A11U C13U A16U G22A U38C C42A, 0.02.

As to G5U U38G C46U, the self-cleavage came out at 0.02. As for A6C A25C G44U, the self-cleavage is 0.15.

As to A6C A14G A16G U20C A39U G40A, the self-cleavage stood at 0. For A6C U9A A11C G22C G36A G40C, the self-cleavage was determined as 0.01. In the case of A6G C18A G21U, the self-cleavage was 0.15.

Take A6G C18G U28C C37A: the self-cleavage is 0.05. As to A6G A16U C37G, the self-cleavage was found to be 0.02.

For A6C A16U G29A, the self-cleavage is 1.34. Regarding A6G G22U U43G, the self-cleavage stood at 0.

With A6C C8G G19A C23A G29U A39U, the self-cleavage was found to be 0. In the case of A6G G7U A41G, the self-cleavage stood at 0.49. Next, A6C C13G A26G G30C U34A: 0.06. In the case of A6G U9A C37A G40U, the self-cleavage worked out at 0.12. Next, A6C G17A G40C C45U: 0.06; A6G G30C G35U A41C: 0.05. Regarding G5U U9G C15U G21U, the self-cleavage was determined as 0.01. Regarding A6G G7U G17U G22C A26C U38C G40U, the self-cleavage was found to be 0.03.

With A6C G7U C18G, the self-cleavage was 0.1. Regarding A6G A14G G40U A41G, the self-cleavage worked out at 0.15. In the case of A6G A11U U28C G33A A41C C42A, the self-cleavage was determined as 0. For A6G A11U G17A C23G, the self-cleavage turned out to be 0.

A6G C13U G19A: the self-cleavage was 0.08.

In the case of A6G G21C G22A U43A, the self-cleavage came to 0.24.

In the case of A6G G7U U34A, the self-cleavage came out at 0.01. With A6C G21A U38G G40A, the self-cleavage was 0.02. On to A6G G17U G30C U38G, for which the self-cleavage worked out at 0.02. In the case of A6G C8U A26U U34A C37A, the self-cleavage was 0.21. In the case of A6C C15G C42A C45U, the self-cleavage was determined as 0.01. With A6C C8U G30U, the self-cleavage was 0.34.

With A6G A14G A16G G19U U20A U43C, the self-cleavage was 0.02. Next, A6C A24G A25C: 0.33; A6C A24G A25G: 0.1; A6G C31G G40U: 0. As to G5U U28A G30U, the self-cleavage was 0.05. Turning to A6G G33U C45U, the self-cleavage is 0.04. As for A6C C18A U38C, the self-cleavage came to 0.07. Take G5U U28C U43C: the self-cleavage stood at 0.03. The result for A6G A16C G44C reads 0.01. Regarding G5U U9C C10G G21C, the self-cleavage worked out at 0. Take A6C C13G G22U A26U G30U: the self-cleavage was 0.17. The result for A6C C10G A12U A16G G19U A25G G30A C46G reads 0; that for A6G C10U C45A, 0.04. Regarding A6C G40A C46A, the self-cleavage was found to be 0.17. With A6G G7A C10U C15G G27C, the self-cleavage came out at 0.01. Consider A6G G17U U28C U38A A41C C42U, for which the self-cleavage turned out to be 0.39. With A6G C13G G21C G22C G36U, the self-cleavage turned out to be 0.04. With A6G C13G G29A, the self-cleavage is 0.07. As to A6G C8A U43A, the self-cleavage turned out to be 0.39.

Turning to A6C U9G C31G C45G, the self-cleavage came out at 0. Turning to A6G G22A A25U U32G G35A C37A, the self-cleavage is 0.06. Next, A6C A26G G35A G36U A41G C42U: 0.02; A6C A16C G17C G22U G44A: 0.03. Next, A6C C8G C10G G33U U34A: 0.02; A6C G19A U34G: 0.02; A6C C8G A11U: 0.05. In the case of A6G A25G A41G, the self-cleavage was 0.1.

In the case of A6G C10A G21U, the self-cleavage turned out to be 0.02.
